The list shows a part of the results.
T1: UNK ZnF1-6 (called full-length) (human, UniProt Q9C0B0 30-357)
T1 sequence: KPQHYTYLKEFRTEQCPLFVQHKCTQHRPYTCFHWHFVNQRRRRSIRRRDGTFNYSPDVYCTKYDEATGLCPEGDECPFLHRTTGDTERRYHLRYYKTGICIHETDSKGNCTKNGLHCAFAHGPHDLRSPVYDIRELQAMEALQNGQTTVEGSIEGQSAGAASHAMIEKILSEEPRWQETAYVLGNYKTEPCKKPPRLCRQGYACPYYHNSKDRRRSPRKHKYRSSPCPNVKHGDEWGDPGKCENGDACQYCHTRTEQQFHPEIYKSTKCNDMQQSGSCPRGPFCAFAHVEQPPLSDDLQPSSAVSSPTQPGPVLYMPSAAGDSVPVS

B1: chr14:90848141:90848242:-|3pUTR|ENSG00000100784|unk|FALSE|unique (ssRNA)
RNA: GGGAGUUCUACAGUCCGACGAUCCGAUAACUGGUACUGCCUUUGAUUAAAGGUGAGCUAUAUGGAGUUAAGCAUUUUUAUACUAGUAACUAUUUAUUGAGAAUUUUCAGAAUUCUAUAGCUACUUGUCUUUAACAGUUAUAAGCAACAGAGGAUUGAGCAUCA
B2: chr11:95131931:95132033:+|3pUTR|ENSG00000149218|unk|total|mutant (ssRNA)
RNA: GGGAGUUCUACAGUCCGACGAUCGGACCGGUGGCUGAGACCCACUGCCCUGAGCUACCCGUGUGGCUGUGCCUGUGGGUCUCCCGAACCAUCUGCAUUGGACGUGAAGCCACAGCAGGUGGCUGGACUGCUGGCCUGUUCCUACAACAGAGGAUUGAGCAUCA
B3: chr20:2117184:2117286:+|CDS|ENSG00000125834|unk|FALSE|unique (ssRNA)
RNA: GGGAGUUCUACAGUCCGACGAUCGCUCCUGGGGACCUACAUUAAACAGGGGACUGAGAUCGUCCCUGUUGGUGAGGCGCUGCUAGAAAACCCAAAGAUGGAGUUGCACAUCCCCCAAAAACGCAGGACUUCCAUGUCUGAGGGCAACAGAGGAUUGAGCAUCA
B4: chr16:67638976:67639077:+|3pUTR|ENSG00000102974|unk|total|mutant (ssRNA)
RNA: GGGAGUUCUACAGUCCGACGAUCAAACACUUUUUUCUUCUGUGUAUUGCUUUUAAGAGAGCCAUCAGUCCGCUAUCAGACUCCCGGUUGAUGCAUUUUGUACUCCGCUGUACUGUGUGAUAUUUUUCAUUAUUUCCGGACGCCCAACAGAGGAUUGAGCAUCA
B5: chr1:28742582:28742694:+|CDS|ENSG00000198492|unk|FALSE|bound_elsewhere (ssRNA)
RNA: GGGAGUUCUACAGUCCGACGAUCAGCAACGGAGAGCCCCACUUCCUACCAGAUGCAAUGUUUGGGCAACCAGGAGCCCUAGGUAGCACUCCAUUUCUUGGUCAGCAUGGUUUUAAUUUCUUUCCCAGUGGGAUUGACUUCUCACAACAGAGGAUUGAGCAUCA
B6: chr13:19825080:19825183:-|CDS|ENSG00000132950|unk|FALSE|unique (ssRNA)
RNA: GGGAGUUCUACAGUCCGACGAUCUUUUAGAGAAGAAAAUGAGAAACAAUUAUAUGGAUCGUCAAAUACACUUUUGAAAAAAAUAGAGGGAAUCCCAGAAAAAAAGGAAAAGACUUCACAGCUACAGCUUUCAGUAGAAUGUGGCAACAGAGGAUUGAGCAUCA
B7: chr16:84129640:84129741:-|CDS|ENSG00000103160|unk|FALSE|unique (ssRNA)
RNA: GGGAGUUCUACAGUCCGACGAUCCUUGCAAUAUGAAUAUGCCUCUAAAGGAAUCUUUGUACAGAGUCUAAUCCCUUUCUAUGUAGCCACCAGCAUGACAGCACCCAGCAACUUUCUGCACAGGUGCUCGUGGUUGGUGCCUUCCAACAGAGGAUUGAGCAUCA
B8: chr11:8980169:8983969:-|three_prime_utr|ENSG00000175352|control|control|control (ssRNA)
RNA: GGGAGUUCUACAGUCCGACGAUCAAUUAUACUACAAAUCCACCCUUCCCCACACCCAGAGUUCAUCACCCCACAAAACUCUGUAGUGCACACAUCAGAAUGAGCAAUGGUGAUGCCACACAGAGUGGUAGGGAAAUGACUAGCCAACAGAGGAUUGAGCAUCA
B9: ENSG00000198589:be:win_1701|CDS|ENSG00000198589|bound_else_gene|NA|bound_elsewhere_windowed (ssRNA)
RNA: GGGAGUUCUACAGUCCGACGAUCAUUGUGUGAUCACGUUCUUCUUAAUCCUGCCAUAUGGAUUCAUACCCCAGCCAAGGUUCAACUGAUGCUCUAUACUUAUCUGUCCACGGAAUUCAUUGGUACAGUCAACAUAUAUAACACCAACAGAGGAUUGAGCAUCA
B10: chr6:43570573:43570674:-|CDS|ENSG00000124571|unk|total|mutant (ssRNA)
RNA: GGGAGUUCUACAGUCCGACGAUCGGUGCCGGAAACACAGACAGAAUUGGUGAUGUUUAUCCUUUUGCGACUGGCAGAGGAUGCCGUGACUUUUCAGACACUUCCCCCUCAAAGAAGAAGGGACAUCCAGCAAACAUUAACCCACAACAGAGGAUUGAGCAUCA
B11: chr12:39369705:39369875:-|CDS|ENSG00000139116|unk|total|mutant (ssRNA)
RNA: GGGAGUUCUACAGUCCGACGAUCGGGUAUUAUUUCUCGAGCUGUUAAACACCUUUUUAAGAGUAUUGAAGAAAAAAAACACACCGCAAUUAAAAAUGGGCUUCCUGCUCCAGAUUUUAAAGUGAAUGCCCAAUUCUCCGAGGUCAACAGAGGAUUGAGCAUCA
B12: chr13:30280108:30280219:-|CDS|ENSG00000102781|unk|total|mutant (ssRNA)
RNA: GGGAGUUCUACAGUCCGACGAUCUAAGGUUCGGCAGGAAUUAUUGGAGGAAUAUGAACAAGUUAAAAGUAUUGUCAGCACUUCCGAAAGUUUUAAAAUUGACAAGCCUCCAGAUUUCCCUGUGUCCUGUCAAGAUGAACCAUUCAACAGAGGAUUGAGCAUCA
B13: chr3:149738563:149738664:-|3pUTR|ENSG00000114744|unk|FALSE|unique (ssRNA)
RNA: GGGAGUUCUACAGUCCGACGAUCUGGAUUAUUAUGGGUCCUUGAUAAAUUCUCAAAGCCUUUUUUUUUGUUCAUCUCUAAAAUAGGAAUAUAGGAUUACCUACCACAUUGACUCGUAAGGACUAUAUGAGACCAUGUAUAUAGCAACAGAGGAUUGAGCAUCA
B14: chr17:66805439:66805473:+|3pUTR|ENSG00000154229|msi1_unk|total|mutant (ssRNA)
RNA: GGGAGUUCUACAGUCCGACGAUCCACAAUUGUGCUCUAUUUGUGCAGGUUCUUGUUUCUAAUCCUCUUUUCUAAUUAAGUUUCCGCUGAAUCCCUUGCUUCUGUGCUUUCCCUCCCUGCACAUGGGCACUGUAUCAGACCGAUCAACAGAGGAUUGAGCAUCA
B15: ENSG00000127914:stop:overlap|stop_codon|ENSG00000127914|stop_codon|NA|stop_codon (ssRNA)
RNA: GGGAGUUCUACAGUCCGACGAUCGGCAGCACCACAGUGCGAGACCCACAGCUCCCCUUUCUUUGAAAUUCUUUCACACUCAUUAGGAUAAUCAAAGCUUCCAGUUUAGUGCAUGAGCUAAUUAUUAAGUUAGCCAAAGCUUAACAACAGAGGAUUGAGCAUCA
B16: chr16:30026608:30026843:-|CDS|ENSG00000149926|control|control|control (ssRNA)
RNA: GGGAGUUCUACAGUCCGACGAUCGGUCAAAGGGCAUGGAGGGGACGACGGAGCGGCCAGAGCCCCGGGCAGCACGUGGGCCAUAGCGCGUGGCUACCUGCACAAGGAGUUCCUCAUGGUGCUCCACCAUGCCGCCAUGGUGCUCAACAGAGGAUUGAGCAUCA
B17: chr1:27823432:27823533:+|3pUTR|ENSG00000117758|unk|total|mutant (ssRNA)
RNA: GGGAGUUCUACAGUCCGACGAUCUUUCAAUAAAAUUACUGUCUUGUAAUAUAAAUGUUGUCCACUUCCCUUUUCCACAGGCCCCGAACAGUUAAAGGGAACAUAAUUUGUUCCGGCUCCCACAUAAAUGUGAAUCUGGCCAACCAACAGAGGAUUGAGCAUCA
B18: chr7:56101660:56101848:-|3pUTR|ENSG00000106153|msi1|FALSE|unique (ssRNA)
RNA: GGGAGUUCUACAGUCCGACGAUCUGGAGAGAUGGAAAAUCAGCUCUCAUAACUAAGUUAAUUUAGUAUAAAAAUAGAAUUGAUAGUGAGGGUAUAAAGUGUAACCAUCAGUUAAACCUCUCCUGUCAUUCCUGGCUUCCUUGCCAACAGAGGAUUGAGCAUCA
B19: chr11:74254050:74254151:+|3pUTR|ENSG00000214517|unk|total|mutant (ssRNA)
RNA: GGGAGUUCUACAGUCCGACGAUCUUGGAAGACCCAGAGAGGCCAAGAUCCCAUCCUCCGCCACCGCGAGCGGUGGUGGUGGACCGCAUCACAAGAAACGAGCCUGAAAAUCAGGUCCAGCCGGUCCAAGCACAUGGCCUCCCACAACAGAGGAUUGAGCAUCA
B20: chr10:59791032:59791133:-|3pUTR|ENSG00000108091|msi1|FALSE|unique (ssRNA)
RNA: GGGAGUUCUACAGUCCGACGAUCUAAUCAUAAUACAGUUCUCAGAUGCAGGGAAGAAGUUUGGCAUUUAAUCAUUGAGGCUUUAGGUUUUUGAUGUGAUCAGACUGGGCCAUGUCAAACCCGGAAUUUUCACCAACAGUUCACCAACAGAGGAUUGAGCAUCA
B21: chr5:149847740:149847841:+|3pUTR|ENSG00000155846|unk|total|mutant (ssRNA)
RNA: GGGAGUUCUACAGUCCGACGAUCAUUGAACAAAGCUGCUUCUGUCUGUGAGUUUCCAUGGUGUUGACGUUCCACUGCCACAUCCGUGUCCUCGCUUCCAACGGGUUGUCCCGGGUGCACCUCGAAGUGCCGGGUCCGUCACCCCAACAGAGGAUUGAGCAUCA
B22: chr16:16142165:16142266:+|3pUTR|ENSG00000103222|msi1|FALSE|unique (ssRNA)
RNA: GGGAGUUCUACAGUCCGACGAUCAUUGAUGUGGGGUAAAUAUUAAGGAGAUGGCCUCAUGGGAAUUUGACCUUGACUAGAAAUAGAGACUGAGAGUGAGCAACCAGCUGGAAGGUACUAUGCCAGUCCUAGCAGAAAAAUGUGCAACAGAGGAUUGAGCAUCA

target: T1, UNK ZnF1-6 (called full-length); assay: nsRBNS (natural sequence RNA bind-n-seq); RBNS binding buffer (assumed for nsRBNS): 25 mM Tris pH 7.5, 150 mM KCl, 3 mM MgCl2, 0.01% Triton X-100, 500 ug/ml BSA, 20 U/ml SUPERase-In, 4 C; UNK is unkempt and MSI1 is Musashi-1; names of the RNAs are library labels; protein concentration not given here; high values mean tight binding

Row | Binder | binding signal [enrichment R]
1 | B1 | 1.77
2 | B2 | 0.499
3 | B3 | 1.08
4 | B4 | 0.443
5 | B5 | 0.665
6 | B6 | 1.16
7 | B7 | 0.376
8 | B8 | 0.663
9 | B9 | 0.246
10 | B10 | 0.586
11 | B11 | 0.575
12 | B12 | 0.259
13 | B13 | 0.645
14 | B14 | 1.54
15 | B15 | 0.757
16 | B16 | 0.969
17 | B17 | 0.523
18 | B18 | 0.888
19 | B19 | 0.402
20 | B20 | 0.681
21 | B21 | 0.672
22 | B22 | 0.81
